Test results published in PubChem BioAssay AID360 (National Center for Advancing Translational Sciences (NCATS), 2006).
Screen size: about 48,000 compounds; about 550 (1.1%) were called active. Roughly 4% stayed inconclusive and do not appear here. Rule as the data show it: active = potency below about 15 µM; inconclusive = mostly about 16 µM to 33 µM; inactive = weaker than that. The list shows a part of the results.

What follows are compounds tested against Lysosomal acid glucosylceramidase (Homo sapiens) (UniProt P04062) (assay: Glucocerebrosidase). Conditions: purified enzyme, resorufin glucoside fluorescence (screen aimed at inhibitors), 20 min; series mostly up to 77 µM.
In short: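 Compounds titrated against 0.2 nM normal enzyme, 30 uM resorufin beta-D-glucopyranoside substrate, citrate/phosphate buffer with taurocholate and tween-20, pH 5.9. Reaction ran 20 min at room temperature; fluorescence (Ex 548/Em 600) gave AC50.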
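Also: the screen sought inhibitors.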
Potency is read from the fitted curve at half-maximal effect.

Sequence of UniProt P04062 (P04062 whole entry, looked up): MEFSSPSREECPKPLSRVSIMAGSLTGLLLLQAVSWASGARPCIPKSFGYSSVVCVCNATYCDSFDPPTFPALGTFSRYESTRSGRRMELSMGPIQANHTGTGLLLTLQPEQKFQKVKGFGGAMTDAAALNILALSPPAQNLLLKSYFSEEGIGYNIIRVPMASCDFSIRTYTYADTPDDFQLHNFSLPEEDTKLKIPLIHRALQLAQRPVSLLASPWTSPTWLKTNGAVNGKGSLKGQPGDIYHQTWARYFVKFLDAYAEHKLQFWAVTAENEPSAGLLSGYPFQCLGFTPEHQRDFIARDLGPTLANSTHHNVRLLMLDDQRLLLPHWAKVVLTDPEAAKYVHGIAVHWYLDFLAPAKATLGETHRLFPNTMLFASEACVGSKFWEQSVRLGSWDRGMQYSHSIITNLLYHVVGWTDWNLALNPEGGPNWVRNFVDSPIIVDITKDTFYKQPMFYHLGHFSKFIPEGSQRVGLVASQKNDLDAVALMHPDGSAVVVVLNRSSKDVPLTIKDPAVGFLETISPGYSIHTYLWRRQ

Potency, active:
COc1ccc(NC(=O)Cn2nnc(-c3ccccc3NC(=O)c3ccco3)n2)cc1 7.17 µM
COc1ccc(CC(=O)Nc2cccc(-c3nnc(-c4cccc(C)c4)o3)c2)cc1OC 10.8 µM

Potency, inactive:
C=CCN1CN(S(=O)(=O)c2cccs2)c2nc3ccccc3nc21 > 76.9 µM
COc1cc(S(=O)(=O)NCC2COCCO2)ccc1-n1cnnn1 (stereo unspecified) > 76.9 µM
COCCN(C(=O)c1csnn1)C(C(=O)NC(C)(C)C)c1cccc(OC)c1 (stereo unspecified) > 76.9 µM
Cc1c(C(=O)O)sc2nc3n(c(=O)c12)CCC(C)CC3 (stereo unspecified) > 76.9 µM
CCn1c(CSc2ncccn2)nnc1SCC(=O)N1CCc2ccccc21 > 76.9 µM
COc1ccc(N(CC(=O)Nc2ccccc2SC)S(C)(=O)=O)cc1OC > 76.9 µM
Cc1ccc(CNC(=O)CSc2ncccn2)cc1 > 76.9 µM
COc1ccc(C2CC(=O)c3cnc(NC(=O)c4cccc(OC)c4)nc3C2)cc1 (stereo unspecified) > 76.9 µM
CC(=O)N(c1ccc(C(C)C)cc1)C1C=CS(=O)(=O)C1 (stereo unspecified) > 76.9 µM
O=C(c1noc2c1CCCC2)N1CCCCC1 > 76.9 µM
COc1ccc(C2CC(c3ccccc3)Nc3nc(NC(=O)c4cccs4)nn32)cc1 (stereo unspecified) > 76.9 µM
CCOc1ccccc1NC(=O)CN(C)S(=O)(=O)c1ccc(OC)c(C)c1 > 76.9 µM
O=S(=O)(NCc1ccc2c(c1)OCO2)c1cccc(S(=O)(=O)N2CCOCC2)c1 > 76.9 µM
Cc1ccc2nsnc2c1S(=O)(=O)NCc1ccc2c(c1)OCO2 > 76.9 µM
CCOC(=O)C1CCCN(C(=O)CNC(=O)Cn2ccc3ccccc3c2=O)C1 (stereo unspecified) > 76.9 µM
Cc1cc(C(=O)CSc2nnnn2C)c(C)n1CCc1ccc(F)cc1 > 76.9 µM
CC(C)=C1C2CC2C2C(C(=O)O)C12 (stereo unspecified) > 76.9 µM
COc1ccc(-c2noc(CCC(=O)N(C)c3cccc(C)c3)n2)cc1 > 76.9 µM
COc1ccc(CNC(=O)C2CCCN2C(=O)NC2CCCCC2)cc1 (stereo unspecified) > 76.9 µM
CCCn1c(SCC(N)=O)nnc1C(C)C > 76.9 µM
COC(=O)c1sc(NC(=O)c2ccc(OC)cc2OC)nc1C > 76.9 µM
CN(c1ccc(C(=O)NCCSC(C)(C)C)cc1)S(C)(=O)=O > 76.9 µM
COc1cc(OC)nc(NC(=O)CSc2nc3ccccc3[nH]2)n1 > 76.9 µM
CCn1cc(CNC(=O)CCc2ccc(OC)cc2)cn1 > 76.9 µM
O=C(NCc1n[nH]c(=S)n1-c1ccc(F)cc1)c1ccco1 > 76.9 µM
COc1ccc(C(c2nnnn2Cc2ccc(F)cc2)N2CCN(c3ccccc3)CC2)cc1 (stereo unspecified) > 76.9 µM
O=C(COC(=O)CCc1c[nH]c(=O)[nH]1)Nc1ccccc1Cl > 76.9 µM
O=S1(=O)CCC(NS(=O)(=O)/C=C/c2ccccc2)C1 (stereo unspecified) > 76.9 µM
CC(NC(=O)CN1C(=O)COc2ccccc21)c1ccccc1 (stereo unspecified) > 76.9 µM
Cc1ccc(OCc2nn3c(-c4ccco4)nnc3s2)cc1 > 76.9 µM
Cc1cnn(C(=S)NCC2CCCO2)c1 (stereo unspecified) > 76.9 µM
O=C(Nc1ccc(Oc2ccccc2)cc1)C1CCCN(c2ncccn2)C1 (stereo unspecified) > 76.9 µM
COc1ccc(C)cc1NC(=O)c1ccc(NC(=O)CC2SC(N3CCCC3)=NC2=O)cc1 (stereo unspecified) > 76.9 µM
CN(C=O)CP(=O)(O)CCN1CCCC1=O > 76.9 µM
CCN1C(=O)c2cccc3c(S(=O)(=O)NC(Cc4c[nH]c5ccccc45)C(=O)O)ccc1c23 (stereo unspecified) > 76.9 µM
CCN(CC)CCN1C(=O)C(=O)/C(=C(/O)c2cnn(-c3ccccc3)c2C)C1c1cccnc1 (stereo unspecified) > 76.9 µM
O=C(COc1ccccc1)N1CCNC1=O > 76.9 µM
Cc1csc(OCc2ccc(C#N)cc2)n1 > 76.9 µM
O=C(COc1nsnc1N1CCOCC1)N1CCOCC1 > 76.9 µM
COc1ccc(CCNC(=O)c2nc3ncccn3n2)cc1OC > 76.9 µM
CCNC(=O)Cn1cnc2c1c(=O)n(C)c(=O)n2C > 76.9 µM
CC[C@@H](C)[C@H](NS(=O)(=O)c1ccc(C)cc1)C(=O)N1CCC(C(=O)NCC(=O)O)CC1 > 76.9 µM
CCOC(=O)CNC(=O)CSc1nc2nc(C)c(Br)cc2[nH]1 > 76.9 µM
C=CCn1c(=O)c2ccccc2n2c(SCc3cc(=O)n4ccsc4n3)nnc12 > 76.9 µM
O=C(NC1CCCCC1)N1CCN(CCc2ccccc2)CC1 > 76.9 µM
CCOc1ccc(OCCSc2nnnn2C2CCCCC2)cc1 > 76.9 µM
CCOC(=O)c1c(NC(=O)CSc2nnnn2-c2ccc3c(c2)OCO3)sc(C)c1C > 76.9 µM
CC(=O)Nc1cccc(C(=O)N2CCN(Cc3ccccc3)CC2)c1 > 76.9 µM
CCN(CC)S(=O)(=O)N1CCC(C(=O)NCC2COc3ccccc3O2)CC1 (stereo unspecified) > 76.9 µM
CCn1cc(CN(C)C(=O)CSc2nc(-c3ccco3)cc(C(F)(F)F)n2)c(C)n1 > 76.9 µM
O=C(COc1ccc(Cl)cc1)N1CCN(c2ncccn2)CC1 > 76.9 µM
CCOc1cc(C)nc(N2CCCC(C(=O)NCc3ccccc3F)C2)n1 (stereo unspecified) > 76.9 µM
COc1ccc(C2C(C(=O)N3CCC(C)CC3)c3ccccc3C(=O)N2C)cc1 (stereo unspecified) > 76.9 µM
CCOCc1cc(C)[nH]c(=O)c1C#N > 76.9 µM
O=C(NCc1ccccn1)Nc1ccc(F)cc1 > 76.9 µM
Cc1ccc(-c2nnc(SCc3ccccc3F)o2)cc1 > 76.9 µM
CCC(=O)N1CCN(c2ccc(NC(=O)c3ccco3)cc2)CC1 > 76.9 µM
O=C(CSc1nc2c(c(=O)n1-c1ccc(F)cc1)SCC2)Nc1ccc2c(c1)OCO2 > 76.9 µM
COC(=O)c1nc(NC(=O)c2ccc(Cl)cc2)n[nH]1 > 76.9 µM
Cc1cccc(N(C(=O)CCC(=O)Nc2cc(C)on2)C(C(=O)NC2CCCC2)c2ccncc2)c1 (stereo unspecified) > 76.9 µM
O=C(COc1cccc(NC(=O)c2ccco2)c1)c1ccccc1 > 76.9 µM
Cc1cc(=O)oc2cc(OCC(=O)OCC(=O)N3CCc4ccccc43)ccc12 > 76.9 µM
CCS(=O)(=O)N1CCN(C(=O)c2cc(OC)cc(OC)c2)CC1 > 76.9 µM
CCn1c(=O)cc(SCC(=O)NCc2ccc3c(c2)OCO3)c2ccccc21 > 76.9 µM
CCCN1C2=C(C(=O)CCC2)C(c2ccc(O)c(Br)c2)C2=C1CCCC2=O > 76.9 µM
COc1ccc(CNC(=O)C2CCN(S(=O)(=O)N3CCOCC3)CC2)cc1 > 76.9 µM
CCc1cc2c(=O)c(-c3nc4ccccc4n3C)c(C)oc2c(CN2CCN(C)CC2)c1O > 76.9 µM
COc1cc(C(=O)N2CCN(C(=O)C(Cc3cc(C)ccc3C)NC(C)=O)CC2)cc(OC)c1OC (stereo unspecified) > 76.9 µM
Cc1cc(S(=O)(=O)N2CCN(c3c(C)cccc3C)CC2)ccc1F > 76.9 µM
Cc1cc(S(=O)(=O)N2CC(=O)N(CCc3ccccc3)C(=O)C2)ccc1F > 76.9 µM
O=C(CN(CCc1ccccc1)C(=O)CNS(=O)(=O)c1ccccc1)NCc1ccco1 > 76.9 µM
S=c1[nH]nc(-c2ccccc2Cl)n1CC1CCCO1 (stereo unspecified) > 76.9 µM
O=C1NCCN1C(=O)N(c1ccccc1)c1ccccc1 > 76.9 µM
CCOc1cccc2cc(-c3cn4cc(C)ccc4n3)c(=O)oc12 > 76.9 µM
Cc1cccc(CS(=O)(=O)Cc2ccc(C(=O)NCc3cccnc3)o2)c1 > 76.9 µM
CC(C)[C@H](NC(=O)NCCc1ccc(Cl)cc1)C(=O)O > 76.9 µM
O=C(CSc1nc2ccccc2c(=O)n1Cc1ccco1)c1ccc(F)cc1 > 76.9 µM
COc1ccccc1-c1nc(SCc2ccccn2)n[nH]1 > 76.9 µM
COCc1c(C(=O)OCC(=O)c2c(N)n(CC(C)C)c(=O)n(C)c2=O)oc2ccccc12 > 76.9 µM
COc1ccc(C)cc1NC(=O)CSc1nnc(COc2ccccc2)n1Cc1ccco1 > 76.9 µM
Cc1ccc(CNC(=O)CCS(=O)(=O)c2ccc(Br)s2)o1 > 76.9 µM
Cc1ccc(NC(=O)c2ocnc2C)cc1Cl > 76.9 µM
O=S(=O)(Nc1nc2ccccc2nc1NCCO)c1cccc(Cl)c1 > 76.9 µM
COc1ccc2c(c1OC)C(=O)N(c1nccs1)C2
Cc1ccccc1CN1CCNC1=O > 76.9 µM
O=C(Nc1cccc(Cl)c1)c1cnn2cccnc12 > 76.9 µM
COc1ccc(OCC(O)COc2ccc(OC)cc2)cc1 > 76.9 µM
COc1cc2c(cc1OC)C(c1ccncc1)CC(=O)N2 (stereo unspecified) > 76.9 µM
O=C(CSCCO)Nc1cccc2ccccc12 > 76.9 µM
